Results published in PubChem BioAssay AID624296 (National Center for Advancing Translational Sciences (NCATS), 2012).
Out of some 350,000 compounds screened, about 9,900 (2.8%) were called active. The inconclusive results got no clear call from the source; some entries with a clear call stand among them for comparison. Calls follow the shape of the dose curve; as a rule, active = well fitted activation curve with a large enough effect; inconclusive = small, poorly fitted or top-dose-only effect; inactive = no such curve, though single readings can be large or run the other way. Potencies of inconclusive entries are left out as doubtful fits.
Potency is read from the fitted curve at half-maximal effect; tags tell the direction and shape of the fitted curve.

Assay: A quantitative high throughput screen for small molecules that induce DNA re-replication in MCF 10a normal breast cells. Also: nearly all actives have a fitted effect of over 50% in size.
Conditions: MCF 10A DNA re-replication, Hoechst nuclear intensity, 48 h; series mostly up to 46.1 µM
With `O=C(NCCc1ccccc1)c1ccc2nc(-c3ccco3)c(-c3ccco3)nc2c1` the Potency was active: 20.6 µM. With `Cc1cccc(N(CC(=O)NC(C)(C)C)C(=O)CCC(=O)Nc2nccs2)c1` the Potency was inconclusive [activator, single point]. For `Cc1ccc(Cn2ncc3c(N4CCN(CCc5ccccc5)CC4)ncnc32)cc1`, the Potency was “inactive”. In the case of `CCN1C(c2ccccc2)C(C)C(=O)C(C)C1c1ccccc1` (stereo not drawn), the Potency is reported as inconclusive [activator, single point]. With `CCOc1cc(CNC(C)(C)CO)cc(Br)c1OCc1ccc(Cl)cc1Cl` the Potency was active: 6.51 µM. In the case of `CCCCCCCCCCCCCC(=O)NO`, the Potency is reported as inconclusive [activator, partial curve, poor fit]. For `CC1CCC(NC(=O)C2CCN(S(=O)(=O)c3cccc4nonc34)CC2)CC1` (stereo not drawn), the Potency was “inactive”. In the case of `CCOC(=O)c1cnc2nc(SCc3ccccc3Cl)[nH]n2c1=O`, the Potency is reported as inconclusive [activator, partial curve, poor fit]. With `COc1cc(/C=N/NC(=O)c2ccc(N3CCCC3=O)cc2)ccc1O` the Potency was inconclusive [activator, partial curve, poor fit]. In the case of `CCOC(=O)N1CCC(n2c(SCC(=O)Nc3nccs3)nc3ccsc3c2=O)CC1`, the Potency is reported as inconclusive [activator, partial curve]. For `C=CCn1ccc(=O)nc1SC`, the Potency was “inactive”. In the case of `CC1=C(C(=O)OC(C)C)C(/C=C/c2ccccc2)NC(=O)N1` (stereo not drawn), the Potency is reported as inconclusive [activator, single point]. With `O=S(Cc1cc(Sc2ccccc2)nc(-c2ccccc2)n1)c1ccccc1` (stereo not drawn) the Potency was active: 23.1 µM. In the case of `COc1ccc2cc(/C=N/NC(=O)c3ccc(CN(c4ccc(C)c(C)c4)S(C)(=O)=O)cc3)c(Cl)nc2c1`, the Potency is reported as inconclusive [activator, single point]. For `O=C(Nc1cc(Cl)ccc1C(=O)O)c1ccc(CN2C(=O)c3ccccc3C2=O)cc1`, the Potency was “inactive”. For `COc1cc(C(=O)OC(C)C(=O)NCC2CCCCC2)cc(NC(=O)c2ccco2)c1OC` (stereo not drawn), the Potency was inconclusive [activator, single point]. With `NS(=O)(=O)c1ccc(Nc2nc3ccccc3nc2NS(=O)(=O)c2cccc([N+](=O)[O-])c2)cc1` the Potency was inconclusive [activator, partial curve, poor fit]. For `c1ccc(Cn2nnnc2C(c2cccs2)N2CCc3ccccc3C2)cc1` (stereo not drawn), the Potency was inconclusive [activator, single point]. With `CN(C)S(=O)(=O)c1ccc(-c2csc(N/N=C/c3ccc(O)cc3)n2)cc1` the Potency was inconclusive [activator, full curve]. With `CCN1CCN(c2cc(C)c3cc(NC(=O)c4cc(OC)cc(OC)c4)ccc3n2)CC1` the Potency was inconclusive [activator, partial curve, poor fit]. In the case of `COc1ccc(-c2noc(-c3ccccc3C(=O)NCc3ccco3)n2)cc1OC`, the Potency is reported as inconclusive [activator, partial curve, poor fit]. With `COCCCNC(=S)Nc1cc2oc3ccccc3c2cc1OC` the Potency was active: 9.2 µM. In the case of `COc1cccc(C(c2c(N)[nH]c(=S)[nH]c2=O)c2c(N)[nH]c(=S)[nH]c2=O)c1`, the Potency is reported as “inactive”. For `Cc1cccc(N2CCN(S(=O)(=O)c3c(C)nc4scc(C)n4c3=O)CC2C)c1` (stereo not drawn), the Potency was inconclusive [activator, partial curve, poor fit]. For `N#C/C(=C\c1ccc(O)c(O)c1)S(=O)(=O)c1ccccc1`, the Potency was inconclusive [activator, partial curve]. In the case of `N#Cc1cc2c(nc1SCC(=O)NCc1ccc3c(c1)OCO3)CCCCC2`, the Potency is reported as inconclusive [activator, single point]. For `COC(=O)C1CCN(C(=O)COC(=O)c2cccc(NS(=O)(=O)c3ccccc3)c2)CC1`, the Potency was “inactive”. With `CC1=C(C(N)=O)C(c2ccccc2)n2nc(-c3cccc(C)c3)nc2N1` (stereo not drawn) the Potency was “inactive”. In the case of `CCC(C)NC(=O)Cn1cnc2sc(C)c(S(=O)(=O)N3CCN(c4ccccc4OC)CC3)c2c1=O` (stereo not drawn), the Potency is reported as “inactive”. With `CC(=O)NC(CCCNC(=S)NC1CCCCC1)C(=O)O` (stereo not drawn) the Potency was “inactive”. In the case of `COc1cccc(CN(C)C(=O)Nc2cccc(C(F)(F)F)c2)c1OC`, the Potency is reported as inconclusive [activator, partial curve, poor fit]. For `O=C(CN(Cc1ccc(F)cc1)C(=O)c1csnn1)NCc1ccc2c(c1)OCO2`, the Potency was “inactive”. In the case of `CCc1ccc(N=c2c([N+](=O)[O-])nn(-c3ccccc3)n2O)cc1`, the Potency is reported as inconclusive [activator, single point]. For `COc1cc(CC(=O)OCC(=O)Nc2ccc(S(=O)(=O)N3CCCC3)cc2)cc(OC)c1OC`, the Potency was inconclusive [activator, single point]. For `O=C(c1ccc(CN2CCc3ccccc3C2)cc1)N1CCN(c2ccc(F)cc2)CC1`, the Potency was active: 7.31 µM. In the case of `O=C(CC1CCCC1)N1CCN(S(=O)(=O)c2ccc(F)cc2)CC1`, the Potency is reported as inconclusive [activator, single point]. In the case of `CC(=O)Oc1c(C)c(OC(C)=O)c2c(c1C(C)=O)OC1CC(=O)C(C(C)=O)=C(O)C21C` (stereo not drawn), the Potency is reported as “inactive”. In the case of `COC(=O)c1ccc(Cn2nc(-c3cc(C)ccc3C)ccc2=O)cc1`, the Potency is reported as inconclusive [activator, single point]. With `COC(=O)C1CN(Cc2ccccc2)C(=O)C1=O` (stereo not drawn) the Potency was “inactive”. In the case of `COC(=O)c1ccc(C(=O)OC)c(NC(=O)CN2CCN(c3ccccc3)CC2)c1`, the Potency is reported as inconclusive [activator, single point]. With `CN1CCN(CCc2nc3cc(NC(=O)COc4ccc(Cl)cc4)ccc3n2C)CC1` the Potency was inconclusive [activator, single point]. In the case of `C=CCn1c(SCC(=O)c2[nH]c(C)c(C(=O)OCC)c2C)nc2scc(-c3ccccc3)c2c1=O`, the Potency is reported as inconclusive [activator, partial curve, poor fit]. For `Cc1cc(C)cc(NC(=S)N2CCN(S(=O)(=O)c3ccccc3)CC2)c1`, the Potency was “inactive”. In the case of `COc1ccc(Cc2[nH]n3c(=O)c(Cl)c(C)nc3c2-c2ccccc2)cc1`, the Potency is reported as inconclusive [activator, single point]. In the case of `CC(C)/C(=N/Nc1ccccc1[N+](=O)[O-])c1ccccc1`, the Potency is reported as inconclusive [activator, single point]. For `Cc1ccc(C(=O)Nc2cccc(C(F)(F)F)c2)cc1NC(=O)c1c[nH]c2cc(C(F)(F)F)ccc2c1=O`, the Potency was “inactive”. With `Fc1ccc(-n2cc(CNCCc3ccncc3)c(-c3ccccc3Cl)n2)cc1` the Potency was “inactive”. For `Cc1cccn2c(=O)c(/C=C(\C#N)C(=O)NC3CCS(=O)(=O)C3)c(N3CCC(C)CC3)nc12` (stereo not drawn), the Potency was active: 5.8 µM. In the case of `O=C(CN(C(=O)CCC(=O)Nc1nccs1)c1cccc(C(F)(F)F)c1)NCC1CCCO1` (stereo not drawn), the Potency is reported as “inactive”. With `CCCCC(=O)N=c1sc2c(OC)ccc(OC)c2n1C` the Potency was inconclusive [activator, partial curve, poor fit]. For `CCOC(=O)C(=Cc1ccc(OCc2ccc([N+](=O)[O-])cc2)c(OC)c1)C(=O)OCC`, the Potency was active: 5.8 µM. For `Cc1nc(-c2cc(C#N)c(Sc3cccc(C(F)(F)F)c3)nc2C)cs1`, the Potency was inconclusive [activator, full curve, poor fit]. For `O=CC(=O)c1ccccc1`, the Potency was inconclusive [activator, partial curve, poor fit]. In the case of `Cc1ccc2c(c1)C1CN(C)CCC1N2C(=O)c1cccc(S(=O)(=O)N(C)C)c1` (stereo not drawn), the Potency is reported as “inactive”. With `O=S(=O)(/C(=C/c1ccc(C(F)(F)F)cc1)c1nc2ccccc2[nH]1)c1ccccc1` the Potency was inconclusive [activator, partial curve, poor fit]. For `CSCCC(NC(=O)c1ccco1)C(=O)Nc1ccncc1` (stereo not drawn), the Potency was “inactive”. In the case of `CC(C)OC(=O)c1c(F)c(F)c(N2CCOCC2)c(F)c1F`, the Potency is reported as active: 3.26 µM. In the case of `Cc1ccc(Cl)cc1NC(=S)N(C)N`, the Potency is reported as inconclusive [activator, single point]. With `COc1ccccc1C(=O)N1CCN(c2cccc(Cl)c2)CC1` the Potency was inconclusive [activator, partial curve, poor fit]. With `CC(=O)N1CCCN(C(=O)c2ccc3nc(Cc4cccc(Cl)c4)oc3c2)CC1` the Potency was inconclusive [activator, partial curve, poor fit]. In the case of `O=C(C[n+]1ccc(C(=O)NCc2ccccc2)cc1)c1ccc(Cl)cc1`, the Potency is reported as “inactive”. With `CCC(C)n1cnc2c(c1=O)c1nc3ccccc3nc1n2-c1ccc2c(c1)OCCO2` (stereo not drawn) the Potency was inconclusive [activator, single point]. With `Cc1ccc(S(=O)(=O)N2CCC(N3CCN(C)CC3)CC2)cc1Cl` the Potency was inconclusive [activator, partial curve, poor fit]. With `Cc1cccc(-c2cc3nc4c(c(N5CCC6(CC5)OCCO6)n3n2)CCCC4)c1` the Potency was “inactive”. In the case of `O=C(NC1CCCCC1)C(c1ccco1)N(C(=O)C(F)(F)F)C1CC1` (stereo not drawn), the Potency is reported as inconclusive [activator, partial curve, poor fit]. With `CSc1cccc(NC(=O)CN(c2ccc(C)cc2C)S(C)(=O)=O)c1` the Potency was inconclusive [activator, partial curve, poor fit]. With `CCCS(=O)(=O)N1CCCC(C(=O)NCCCN(Cc2ccccc2)C(C)C)C1` (stereo not drawn) the Potency was “inactive”. In the case of `O=C(Nc1ccc(F)cc1)c1ccc(Br)c(S(=O)(=O)N2CCOCC2)c1`, the Potency is reported as “inactive”.
